Measurements: PubChem BioAssay AID1745845 (National Center for Advancing Translational Sciences (NCATS), 2022)
In all, about 360,000 compounds went through this assay and about 2,600 (0.72%) were called active. The inconclusive results got no clear call from the source; some entries with a clear call stand among them for comparison. The call rests on the fitted dose curve; in most records, active means well fitted inhibition curve with a large enough effect; inconclusive means small, poorly fitted or top-dose-only effect; inactive means no such curve, though single readings can be large or run the other way. Where the call is inconclusive, the potency comes from a doubtful curve fit.

test: Primary qHTS for Inhibitors of ATXN expression; conditions: HEK-293 ATXN2-luciferase reporter, luminescence, 24 h; activity change, negative = inhibition: at 57 µM (top of the series); further: nearly all actives have a fitted effect of over 55% in size
How it was run: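 ATXN2-luciferase reporter cells (luciferase flanked by upstream and downstream ATXN2 gene portions) were treated 24 h at 37 °C with compounds at up to 57 uM. SteadyGlo luminescence gave expression; GF-AFC fluorescence gave viability.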
On the % scale 0 is the no-effect control and ±100 the full control effect; potency means the concentration at half of the fitted maximal effect; tags describe the fitted curve by direction and shape.

SMILES	Potency	activity change, negative = inhibition
Nc1nc(SCc2ccc(Cl)cc2Cl)nc2nc3c(cc12)CCCC3	inconclusive: 39.8 µM [inhibitor, single point]	
NC(N)=N/N=C/c1ccc(Cl)c(Cl)c1	inconclusive: 25.1 µM [inhibitor, partial curve]	
COc1cccc(C(=O)Nc2nnc(-c3cccs3)o2)c1	inconclusive: 28.2 µM [inhibitor, single point]	
COc1cnc(-c2ccccn2)nc1Sc1ccc(C)cc1	inconclusive: 17.8 µM [inhibitor, partial curve, poor fit]	
O=C(NCCN1CCOCC1)c1ccc(/C=C2\Sc3ccccc3N(Cc3ccc(F)cc3)C2=O)cc1	inconclusive: 35.5 µM [inhibitor, single point]	
FC(F)(F)c1cc(CCN2C(=S)NC[C@@H]2Cc2ccccc2)cc(C(F)(F)F)c1	inconclusive: 39.8 µM [inhibitor, single point]	
Cc1ccc(C)n1-c1nnc(N2CCC(C(=O)NCCCN3CCN(C)CC3)CC2)s1		inactive: -10.3%
CN(CC1COc2ccccc2O1)C(=O)CSc1ncccn1 (stereo not drawn)		inactive: 17.1%
COC1=C2C[C@@H](C)C[C@H](OC)[C@@H](O)[C@@H](C)C=C(C)[C@H](OC(N)=O)[C@@H](OC)C=CC=C(C)C(=O)NC(=CC1=O)C2=O	active: 0.769 µM	
Cc1cccc(N2C(S)=C(C#N)C(=O)NC2c2cccs2)c1 (stereo not drawn)		inactive: -1.43%
COc1ccc(/C=C2\SC(=S)N(CCCC(=O)N3CCN(C)CC3)C2=O)cc1	inconclusive: 39.8 µM [inhibitor, single point]	
O=C(NNc1nc(-c2ccc(F)cc2)cs1)c1ccccc1	inconclusive: 33.6 µM [inhibitor, single point]	
CCOC(=O)c1cc2c(=O)n3ccccc3nc2n(Cc2ccco2)c1=NC(=O)c1cccc(F)c1	inconclusive: 28.2 µM [inhibitor, partial curve, poor fit]	
COc1ccc([C@H]2C[C@H](n3cc(C4CC4)nn3)[C@@H](O)CN2CC2CCCCC2)cc1	inconclusive: 39.8 µM [inhibitor, partial curve, poor fit]	
COc1ccc(C(=O)CN2C(=O)c3ccccc3S2(=O)=O)cc1	active: 0.501 µM	
CC(C)(CO)NCc1c(OCc2ccc(Cl)cc2)ccc2ccccc12	inconclusive: 17.8 µM [inhibitor, partial curve, poor fit]	
COc1ccc(OC)c(C2C3CN(C(C)C)CC=C3C(C#N)=C(N)C2(C#N)C#N)c1 (stereo not drawn)		inactive: 0.0769%
Cc1ccc2cc(C3C(C#N)=C(N)Oc4c3ccc3cccnc43)c(=O)[nH]c2c1 (stereo not drawn)	inconclusive: 35.5 µM [inhibitor, single point]	
CS(=O)(=O)c1ccc(C(=O)OCC(=O)NC23CC4CC(CC(C4)C2)C3)cc1[N+](=O)[O-]	inconclusive: 39.8 µM [inhibitor, single point]	
Cc1cccc(NC(=O)c2sc3nc4c(cc3c2N)CN(C(C)C)CC4)c1	inconclusive: 12.6 µM [inhibitor, partial curve]	
Cc1ccc(NC(=O)COc2ccccc2CNC(C)(C)CC(C)(C)C)cc1	active: 25.1 µM	
CCc1cc(=S)n2c([nH]c3ccccc32)c1C#N	inconclusive: 23.8 µM [inhibitor, partial curve, poor fit]	
CCSc1nnc(NC(=O)CSc2nccn2-c2cccc(C)c2C)s1		inactive: 9.51%

SMILES	Potency	activity change, negative = inhibition
CC(C)Cc1ccc(C(C)C(=N)N)cc1 (stereo not drawn)	inconclusive: 31.6 µM [inhibitor, single point]	
CCOc1cccc(C(=O)Nc2cccc(-c3nnc(-c4ccc(C)cc4)o3)c2)c1	inconclusive: 14.1 µM [inhibitor, partial curve, poor fit]	
COc1ccc(C(CCN2CCOCC2)c2c(OC)cc(OC)c3ccc(=O)oc23)cc1 (stereo not drawn)		inactive: -15.4%
CC(C)(C)OC(=O)NCCc1nnc(SCc2ccccc2Cl)o1		inactive: 5.41%
O=C(O)COc1ccc2nsnc2c1Cl		inactive: 45.6%
COc1ccccc1-c1nnc2sc(-c3ccc(N(C)C)cc3)nn12		inactive: -16.8%
O=C(Nc1ccon1)c1nc[nH]c1C(=O)NCc1ccccc1	inconclusive: 1.78 µM [inhibitor, partial curve, poor fit]	
Cc1ccc2nc(C3CCN(S(=O)(=O)c4ccc5ccccc5c4)CC3)[nH]c2c1	inconclusive: 25.1 µM [inhibitor, single point]	
CC(=O)c1ccc(-c2cc([C@H]3[C@H]4C=CC[C@@H](C)[C@@H]4C(=O)N3Cc3ccccc3)ccc2F)cc1	inconclusive: 25.1 µM [inhibitor, single point]	
Cc1ccc(-c2n[nH]c(=S)n2C)cc1Cl		inactive: -25%
CCOc1ccc(CCn2c(-c3ccco3)nc3ccccc3c2=O)cc1OCC	inconclusive: 39.8 µM [inhibitor, single point]	
CN(Cc1ccccc1)Cc1nc2c(c(=O)n(C)c(=O)n2C)n1Cc1ccc(Cl)cc1		inactive: -13.8%
Cc1cccc(Nc2nnc(SCC(=O)N(C)C3CCS(=O)(=O)C3)s2)c1C (stereo not drawn)		inactive: 8.83%
CC(=O)c1ccc(OCCCC(=O)N2CCN(S(=O)(=O)c3ccc(C(C)C)cc3)CC2)cc1		inactive: -22.1%
Oc1ccc(-c2nc(-c3ccccc3)c(-c3ccc(Br)cc3)[nH]2)cc1	inconclusive: 35.5 µM [inhibitor, single point]	
COc1cc(NC(=O)CN2c3ccccc3CC2C)cc(OC)c1OC (stereo not drawn)		inactive: -1.51%
O=C(/C=C/c1ccccc1)NC(=S)Nc1ccccc1C(=O)NC1CCCCC1	inconclusive: 31.6 µM [inhibitor, partial curve, poor fit]	
CC1CCN(c2ccc(NC(=O)C3CCCN3S(=O)(=O)c3ccc(F)cc3)cc2)CC1 (stereo not drawn)	inconclusive: 20 µM [inhibitor, single point]	
C/C(=N\NC(=O)c1nnn(-c2nonc2N)c1-c1ccccc1)c1ccccc1O	inconclusive: 0.891 µM [inhibitor, full curve, poor fit]	
CCCC(CCC)C(=O)Nc1ccc2c(c1)N(C(=O)CN1CCN(C)CC1)c1ccccc1CC2		inactive: -1.02%
COC(=O)c1ccc2nc(Nc3nc4c(F)cc(F)cc4s3)sc2c1	inconclusive: 0.158 µM [inhibitor, full curve, poor fit]	
Cc1ccc(OCC(=O)Nc2ccc(NC(=O)c3cccs3)cc2)c(C)c1	inconclusive: 22.4 µM [inhibitor, partial curve, poor fit]	
O=C(Nc1ccc(Cl)c(Cl)c1)Nc1ccc(N2CCCC2)c(S(=O)(=O)Nc2ccccc2Cl)c1	inconclusive: 4.47 µM [inhibitor, full curve]	

SMILES	Potency	activity change, negative = inhibition
CCOC(=O)N1CCC(NC(=O)c2ccc3c(c2)N(Cc2ccc(F)cc2)CCS3)CC1	inconclusive: 20 µM [inhibitor, partial curve, poor fit]	
COc1ccc(CN2CCN(CCCCOc3ccc(Cl)cc3)CC2)c(OC)c1OC	inconclusive: 8.91 µM [inhibitor, full curve, poor fit]	
CC(=O)N1N=C(c2ccc(NS(=O)(=O)c3ccccc3)cc2)CC1c1ccco1 (stereo not drawn)	inconclusive: 0.844 µM [inhibitor, partial curve, poor fit]	
c1ccc2c(c1)CC(N1CCCCC1)c1ccccc1S2 (stereo not drawn)		inactive: -31.4%
CCN(c1ccccc1)S(=O)(=O)c1ccc(Cl)c(C(=O)NC2CCN(Cc3ccccc3)CC2)c1	inconclusive: 20 µM [inhibitor, partial curve, poor fit]	
Cc1[nH]ccc(=O)c1OCc1ccc(Cl)cc1	inconclusive: 20 µM [inhibitor, partial curve, poor fit]	
CC1Cc2ccccc2N1C(=O)CSc1nc2c(c(=O)n(C)c(=O)n2C)n1Cc1ccccc1 (stereo not drawn)	inconclusive: 22.4 µM [inhibitor, partial curve, poor fit]	
O=C(CCn1cnnn1)Nc1cc(C(F)(F)F)cc(C(F)(F)F)c1		inactive: -0.102%
O=C1c2cccc(NCCNCCO)c2C(=O)c2cccc(NCCNCCO)c21	active: 4.47 µM	
Cc1noc(NS(=O)(=O)c2ccc(NC(=O)C(Cl)(Cl)Cl)cc2)c1C		inactive: 6.13%
O=C(C1CCN(S(=O)(=O)c2cccc3nonc23)CC1)N1CCCCC1		inactive: 3.18%
Cc1ccc(Cl)cc1N1CCN(C(=O)CCCn2c(=O)[nH]c3ccc(Br)cc3c2=O)CC1	inconclusive: 31.6 µM [inhibitor, single point]	
Nc1nc(-c2ccccn2)nc(N)c1Cc1c(F)cccc1Cl	inconclusive: 35.5 µM [inhibitor, single point]	
COc1ccc(CC(=O)Nc2ccccc2N2CCOCC2)cc1OC		inactive: -4.27%
O=S(=O)(Nc1cc(F)ccc1F)c1ccc2[nH]c3c(c2c1)CCCCC3	inconclusive: 39.8 µM [inhibitor, single point]	
COc1ccc(NC(=O)C[C@H]2C(=O)N(Cc3ccccc3)C[C@@H]2C)cc1		inactive: 5.33%
COc1ccc(-c2csc(C(C)(NC(C)=O)c3ccccc3)n2)cn1 (stereo not drawn)		inactive: -1.47%
CC(C)[C@H](NC(=O)c1ccccc1F)C(=O)NC1CCCCCCC1		inactive: 6.5%
Cc1cc(C)n2nc(/C(C#N)=C/c3ccccn3)c(C#N)c2n1	inconclusive: 39.8 µM [inhibitor, single point]	
Cn1cc(CN2CCC(C(=O)NC(c3ccc(-c4ccccc4)cc3)c3cnccn3)CC2)c2ccccc21 (stereo not drawn)		inactive: -23.4%
CCC[C@@H]1CCCC/C=C\CCCC(=O)OCCN1C(=O)OC(C)(C)C	inconclusive: 39.8 µM [inhibitor, single point]	
O=C(CN(c1cccc(Br)c1)S(=O)(=O)c1ccccc1)N/N=C/c1cc([N+](=O)[O-])ccc1O	inconclusive: 35.5 µM [inhibitor, single point]	
